Experimental data from PubChem BioAssay AID624417 (National Center for Advancing Translational Sciences (NCATS), 2012).
Hit rate of the full screen: of about 410,000 compounds, about 6,400 (1.6%) were called active. The inconclusive results got no clear call from the source; some entries with a clear call stand among them for comparison. The call rests on the fitted dose curve; in most records, active means well fitted inhibition curve with a large enough effect; inconclusive means small, poorly fitted or top-dose-only effect; inactive means no such curve, though single readings can be large or run the other way. Potencies of inconclusive entries are doubtful fits and often do not repeat.

These molecules were tested against Glucagon-like peptide 1 receptor (Homo sapiens) (UniProt P43220) (assay: qHTS of GLP-1 Receptor Inverse Agonists (Inhibition Mode)). Conditions: HEK293 GLP-1R CRE-luciferase, luminescence, 24 h, GLP-1R form is constitutively active; series mostly up to 38.3 µM.
Method in brief: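 Cells are plated, allowed 12 hours at 37 deg C, then treated with compounds for 24 hr before luciferase detection reagent is added and luminescence is read after 12 min at room temperature. The HEK293 line carries constitutively active GLP-1R with a cAMP-responsive reporter.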
Further: nearly all actives have a fitted effect of over 55% in size.
Potency means the concentration at half of the fitted maximal effect; tags describe the fitted curve by direction and shape.

UniProt P43220, sequence (P43220 whole entry, looked up): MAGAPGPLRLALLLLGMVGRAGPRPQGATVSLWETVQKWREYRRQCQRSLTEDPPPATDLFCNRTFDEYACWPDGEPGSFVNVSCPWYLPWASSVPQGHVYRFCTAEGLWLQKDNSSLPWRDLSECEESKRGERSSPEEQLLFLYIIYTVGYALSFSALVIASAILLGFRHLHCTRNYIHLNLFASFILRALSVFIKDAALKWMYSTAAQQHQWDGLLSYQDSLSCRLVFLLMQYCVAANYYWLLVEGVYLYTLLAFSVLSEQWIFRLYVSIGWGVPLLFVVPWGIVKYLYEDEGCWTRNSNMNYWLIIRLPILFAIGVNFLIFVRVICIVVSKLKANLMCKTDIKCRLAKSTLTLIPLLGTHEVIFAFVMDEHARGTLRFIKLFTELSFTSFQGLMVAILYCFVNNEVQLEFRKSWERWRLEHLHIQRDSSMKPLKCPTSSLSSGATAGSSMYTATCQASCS

Potency, inconclusive:
Cc1ccc(C(=O)OCC(=O)NC2CCCCCC2)c(C)c1 10 µM [inhibitor, partial curve, poor fit], CCOC(=O)C1CCC(CN(Cc2c(Cl)cccc2Cl)S(=O)(=O)c2ccc(F)cc2)CC1 (centres undefined) 11.2 µM [inhibitor, partial curve, poor fit], CCCN1CCN(c2ncnc3scc(C4COc5ccccc5O4)c23)CC1 (centres undefined) 11.2 µM [inhibitor, partial curve, poor fit], Cc1cc(C)c2c(CN3CCN(C/C=C/c4ccccc4)CC3)cc(=O)oc2c1 28.2 µM [inhibitor, single point], O=C(Nc1ccc2c(c1)OCO2)c1cc(C2CCCCN2C(=O)c2ccc3ccccc3c2)on1 (centres undefined) 6.31 µM [inhibitor, partial curve, poor fit], COc1cc(OC)cc(C(=O)N[C@H](C(=O)OCC(=O)c2c[nH]c3ccccc23)C(C)C)c1 8.91 µM [inhibitor, partial curve, poor fit], Cc1cccc(N/C=C/C(=O)c2cccs2)c1C 28.2 µM [inhibitor, single point], CCc1ccc(NC(=O)CSc2nc3ccccc3c(=O)n2CCCN2CCC(C)CC2)cc1 0.501 µM [inhibitor, full curve, poor fit], CCN1CCN(CC(O)COc2ccc(Cl)cc2)CC1 (centres undefined) 1.58 µM [inhibitor, full curve], Cc1ccccc1C(=O)NC(=S)NCCc1ccccc1 12.6 µM [inhibitor, single point], COc1ccc(/C=C2\SC(=O)N(CCNC(=O)C3CC4C=CC3C4)C2=O)cc1 (centres undefined) 6.31 µM [inhibitor, partial curve], COc1cc(C(=O)N2CCc3c([nH]c4ccccc34)C2c2ccccc2)cc(OC)c1OC (centres undefined) 28.2 µM [inhibitor, single point]

Potency, inactive:
Cc1sc2ncnc(SCC(=O)NC3CCS(=O)(=O)C3)c2c1C (centres undefined), Cn1c(C(=O)NC2CCCCC2)cc2c(=O)n3ccccc3nc21, CC(=O)N1CCC2(CC1)OC(=O)C(C)=C2C(=O)Nc1ccccc1C(F)(F)F, CCOC(=O)C1CCN(C(=O)Cn2ncc3c([nH]c4ccc(C)cc43)c2=O)CC1, Cc1cc2c(N=NC(=O)CCc3ccccc3)c(O)[nH]c2cc1Br, CC(C)CC(NC(=O)C1CCCN1C(=O)OC(C)(C)C)C(=O)NCC(N)=O (centres undefined), CCC(CC)C(=O)N(C)c1c(C)nc2c(OCc3ccccc3C(=O)OC)cccn12
